The results in this text go back to paper PMC4336329 (PLoS ONE, 2015).

Among all 310,000 compounds or so, about 14,000 (4.5%) showed an effect of 50% or more. Effects have a minus sign here. This is one part of the list.
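Further: peak tail current of the secondary pulse compared with the same well before compound.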

Chain of human ether-à-go-go-related gene (hERG) potassium channel (Q12809 whole entry, looked up): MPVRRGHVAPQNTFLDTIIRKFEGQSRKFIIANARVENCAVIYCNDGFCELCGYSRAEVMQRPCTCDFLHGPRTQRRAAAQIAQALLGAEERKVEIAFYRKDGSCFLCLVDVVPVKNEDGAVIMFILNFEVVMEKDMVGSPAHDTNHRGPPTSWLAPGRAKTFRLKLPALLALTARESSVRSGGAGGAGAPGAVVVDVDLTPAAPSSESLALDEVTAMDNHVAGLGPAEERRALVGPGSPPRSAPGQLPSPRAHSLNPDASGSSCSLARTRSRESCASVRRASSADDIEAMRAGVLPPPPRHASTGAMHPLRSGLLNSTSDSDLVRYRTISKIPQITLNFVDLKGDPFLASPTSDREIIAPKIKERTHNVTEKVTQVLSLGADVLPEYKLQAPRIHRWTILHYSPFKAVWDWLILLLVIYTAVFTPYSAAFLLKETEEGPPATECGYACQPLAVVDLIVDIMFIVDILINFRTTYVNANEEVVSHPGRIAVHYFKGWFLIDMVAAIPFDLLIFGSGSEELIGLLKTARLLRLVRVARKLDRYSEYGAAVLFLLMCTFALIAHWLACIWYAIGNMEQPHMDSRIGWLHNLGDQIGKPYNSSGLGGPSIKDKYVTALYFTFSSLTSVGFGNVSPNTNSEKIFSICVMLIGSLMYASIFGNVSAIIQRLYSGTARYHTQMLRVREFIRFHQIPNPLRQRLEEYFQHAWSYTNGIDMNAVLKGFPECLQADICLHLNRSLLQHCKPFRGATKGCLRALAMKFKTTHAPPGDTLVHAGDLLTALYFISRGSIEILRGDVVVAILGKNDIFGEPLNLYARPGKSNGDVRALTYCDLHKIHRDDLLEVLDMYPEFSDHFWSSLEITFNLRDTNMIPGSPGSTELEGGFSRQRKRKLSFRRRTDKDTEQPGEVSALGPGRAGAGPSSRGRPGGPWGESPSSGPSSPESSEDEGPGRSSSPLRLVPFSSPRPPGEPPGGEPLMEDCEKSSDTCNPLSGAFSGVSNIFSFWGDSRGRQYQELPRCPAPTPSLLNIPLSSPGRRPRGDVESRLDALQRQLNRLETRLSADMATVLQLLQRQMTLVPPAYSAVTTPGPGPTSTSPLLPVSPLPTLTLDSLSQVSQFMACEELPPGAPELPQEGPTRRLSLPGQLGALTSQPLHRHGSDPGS

The experiment has as its target human ether-à-go-go-related gene (hERG) potassium channel (human, UniProt Q12809). Kind of experiment: primary screen, population patch clamp on CHO cells stably expressing hERG.
Regarding `O=C(COC(=O)COc1ccc(Cl)cc1Cl)NC1CCCCCC1`, the “hERG current change (%, negative = inhibition) at 10uM” value turned out to be 15.7%.
As to `COc1ccccc1N1CCN(C(=O)C(NS(=O)(=O)c2cccs2)c2ccccc2)CC1` (stereo not drawn), the “hERG current change (%, negative = inhibition) at 10uM” value is -34.4%.
Under `COc1cc(C)c(-c2[nH]ncc2-c2csc(C)n2)c(O)c1` stands 1.23%.
Under `COc1ccc(C)cc1NC(=O)NCc1ccco1` stands 16.2%; under `C=C(C)Cn1c(-c2cccc([N+](=O)[O-])c2)n[nH]c1=S`, -0.235%; under `COc1ccc(N(CC(=O)Nc2ccccc2OC)S(=O)(=O)c2ccc(NC(C)=O)cc2)cc1`, -3.12%.
Under `CCCN1C(=O)c2ccc(C(=O)NC3CCCCC3)cc2C1=O` stands 18.4%; under `CCN(CC)C(=S)Sc1c(-c2ccccc2)c2cc(Cl)ccc2[nH]c1=O`, 5.42%.
In the case of `COc1ccc(OC)c(NC(=O)CCN2CCCCCC2)c1.Cl`, the “hERG current change (%, negative = inhibition) at 10uM” value is -0.265%.
Under `NC(=O)NC(=O)C(OC(=O)CCNS(=O)(=O)c1ccccc1)c1ccccc1` (stereo not drawn) stands -15.2%.
Consider `COc1ccc(-n2nnnc2SCC(=O)NCc2ccco2)cc1OC`, for which the “hERG current change (%, negative = inhibition) at 10uM” value is -7.64%.
The value for `CCN(CC)S(=O)(=O)c1ccc(OC)c(NC(=O)c2ccc(OC)c([N+](=O)[O-])c2)c1` was -24.4%.
The value for `O=C(CCNS(=O)(=O)c1ccccc1)N1CCCC1` was 20.5%; that for `O=C(O)Cn1cc(C(=O)C(F)(F)F)c2ccccc21` was 23.2%; that for `O=C1NN(c2cccc(Br)c2)C(=O)/C1=C\c1ccc(O)cc1` was 12%.
The value for `CCOc1ccc(NC(=O)c2ccco2)cc1` was 1.89%.
As for `COc1ccccc1OCCC(=O)Nc1nc(C)cs1`, the “hERG current change (%, negative = inhibition) at 10uM” value is given as -4.6%.
Under `COc1ccc2c(c1)CCCN2S(=O)(=O)c1ccc(Cl)cc1` stands 9.65%; under `O=C1CN(C(=O)OCc2ccccc2)c2ccccc2N1`, 6.68%.
Under `COC(=O)C(C)C1Sc2ccccc2NC1=O` (stereo not drawn) stands 15.7%.
For the compound `O=C1C(Cl)=C(N2CCCCC2)C(=O)N1c1ccccc1Cl`, the “hERG current change (%, negative = inhibition) at 10uM” value came to 2.75%.
Under `O=C(COC(=O)c1ccccc1Nc1ccc(SC(F)F)cc1)NCc1ccco1` stands 9.78%; under `NC(=O)c1ccccc1OCC(=O)Nc1ccc2c(c1)CCC2`, 5.27%.
Regarding `CCOc1c(Cl)cc(/C=C/C(=O)N(CC)CC(=O)Nc2ccc(NC(C)=O)cc2)cc1OC`, the “hERG current change (%, negative = inhibition) at 10uM” value is recorded as -9.39%.
Turning to `Cc1ccc(C(C)C)c(OCC(=O)NNC(=O)Nc2ccccc2)c1`, the “hERG current change (%, negative = inhibition) at 10uM” value is recorded as -2.28%.
The value for `CCOc1ccc(NC(=O)CN(C)C(=O)C2=COCCO2)cc1OCC` was -11.1%; that for `CCC(=NCCc1ccc(OC)c(OC)c1)C1=C(O)CC(C)(C)CC1=O` was 17.6%.
Under `O=C(COC(=O)C1CCCCC1)Nc1ccccc1OC(F)F` stands 44.1%; under `O=C(Nc1ccc2sccc2c1)c1cccc(N2C(=O)CCC2=O)c1`, -4.81%; under `Cc1ccc(C(=O)Nc2nc(=O)n(C(=O)CC(C)C)s2)cc1`, 43%.
For `COc1ccc(S(=O)(=O)CCC(=O)N2CC(=O)N(CCc3ccccc3)C(=O)C2)cc1`, the “hERG current change (%, negative = inhibition) at 10uM” value is on record as -9.84%.
Regarding `COCCNC(=O)CCCCCNS(=O)(=O)c1ccc(C)cc1`, the “hERG current change (%, negative = inhibition) at 10uM” value is 8.18%.
Consider `Cc1cc(C)cc(OCC(=O)Nc2ccc(N3CCN(S(C)(=O)=O)CC3)cc2)c1`, for which the “hERG current change (%, negative = inhibition) at 10uM” value was 3.74%.
Under `CCCc1nnc(NC(=O)C(CC)OC(=O)c2cc(C)nc3ccccc23)s1` (stereo not drawn) stands -28%; under `COC(=O)c1cccc(OC(N)=O)c1`, -0.699%; under `COc1cc(/C=C/C(=O)O)cc(S(=O)(=O)N(C)CCO)c1OC`, -2.7%.
Under `COc1ccc(N(C)S(=O)(=O)c2ccc3c(c2)CCC(=O)N3)cc1` stands -9.5%; under `CCOC(=O)C(NC(=O)c1ccccc1Cl)(Nc1ccc(C)c(C)c1)C(F)(F)F` (stereo not drawn), 1.26%; under `COc1cc2ccccc2cc1C(=O)Nc1ccc(Br)cn1`, 21.2%.
The value for `Clc1cccc(/C=N/Nc2ncnc3ccccc23)c1` was -18.3%.
With `Cc1ccc(C(=O)CN2C(=O)NC3(CCCCCC3)C2=O)c(C)c1`, the “hERG current change (%, negative = inhibition) at 10uM” value was determined as 22%.
Under `CN(Cc1cnn(-c2ccccc2)c1)C(=O)C1CCC(=O)N(C2CC2)C1` (stereo not drawn) stands -10.1%; under `Cc1ccnc(NC(=O)COc2c(C)cc(C)cc2[N+](=O)[O-])c1`, 12.3%; under `COc1ccc(C2c3[nH]c4ccccc4c3C[C@H]3C(=O)N(CC(C)C)CC(=O)N23)c(OC)c1` (stereo partly drawn), -10%.
Under `Cc1ccc(C(=O)Nn2cnc3scc(-c4cccs4)c3c2=O)c(O)c1` stands 11.6%.
